Measured values from paper PMC10794710.
Results are given in words; binding and its absence hold for the method and conditions named. Binding seen in cells or lysates may run through a third protein. Some binding calls cover weakened binding; strength is not graded here.

The chains behind the UniProt entries cited, without tags or fusion partners.
UniProt Q15561: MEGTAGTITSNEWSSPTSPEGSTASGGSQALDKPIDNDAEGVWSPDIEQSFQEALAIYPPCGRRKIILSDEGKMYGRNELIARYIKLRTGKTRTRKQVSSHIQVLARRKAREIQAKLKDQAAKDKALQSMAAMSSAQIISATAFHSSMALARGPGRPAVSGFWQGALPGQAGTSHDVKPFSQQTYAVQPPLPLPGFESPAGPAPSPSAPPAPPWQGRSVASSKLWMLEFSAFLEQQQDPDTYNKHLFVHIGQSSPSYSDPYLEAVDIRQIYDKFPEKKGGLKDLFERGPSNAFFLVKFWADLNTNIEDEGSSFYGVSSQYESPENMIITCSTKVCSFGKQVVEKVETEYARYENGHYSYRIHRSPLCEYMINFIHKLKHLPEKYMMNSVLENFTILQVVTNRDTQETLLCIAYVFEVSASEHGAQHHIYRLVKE
UniProt P23771: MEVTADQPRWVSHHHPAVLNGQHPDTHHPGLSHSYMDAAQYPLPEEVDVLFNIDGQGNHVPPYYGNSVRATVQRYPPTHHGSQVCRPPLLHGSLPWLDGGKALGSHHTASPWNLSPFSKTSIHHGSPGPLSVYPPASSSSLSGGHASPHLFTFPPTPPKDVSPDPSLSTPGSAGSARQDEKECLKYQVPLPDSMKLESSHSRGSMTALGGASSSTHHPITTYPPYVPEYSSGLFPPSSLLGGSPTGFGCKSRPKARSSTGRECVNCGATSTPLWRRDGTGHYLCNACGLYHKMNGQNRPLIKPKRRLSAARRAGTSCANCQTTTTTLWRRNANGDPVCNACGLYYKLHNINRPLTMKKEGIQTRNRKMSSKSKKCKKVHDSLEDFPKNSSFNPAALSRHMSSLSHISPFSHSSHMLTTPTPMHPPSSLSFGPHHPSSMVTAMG
UniProt Q92754: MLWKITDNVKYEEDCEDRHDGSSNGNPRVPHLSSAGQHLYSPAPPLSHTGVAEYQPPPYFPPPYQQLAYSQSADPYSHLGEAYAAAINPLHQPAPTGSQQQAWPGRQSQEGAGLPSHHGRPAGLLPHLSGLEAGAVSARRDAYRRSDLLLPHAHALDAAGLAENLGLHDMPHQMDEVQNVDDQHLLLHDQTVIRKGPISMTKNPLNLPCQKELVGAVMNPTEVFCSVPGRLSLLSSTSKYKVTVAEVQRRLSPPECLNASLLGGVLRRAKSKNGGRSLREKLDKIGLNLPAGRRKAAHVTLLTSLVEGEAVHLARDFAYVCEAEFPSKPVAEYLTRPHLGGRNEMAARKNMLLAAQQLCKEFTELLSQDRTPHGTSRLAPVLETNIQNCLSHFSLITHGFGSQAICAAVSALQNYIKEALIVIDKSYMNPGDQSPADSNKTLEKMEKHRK
UniProt Q9GZV5: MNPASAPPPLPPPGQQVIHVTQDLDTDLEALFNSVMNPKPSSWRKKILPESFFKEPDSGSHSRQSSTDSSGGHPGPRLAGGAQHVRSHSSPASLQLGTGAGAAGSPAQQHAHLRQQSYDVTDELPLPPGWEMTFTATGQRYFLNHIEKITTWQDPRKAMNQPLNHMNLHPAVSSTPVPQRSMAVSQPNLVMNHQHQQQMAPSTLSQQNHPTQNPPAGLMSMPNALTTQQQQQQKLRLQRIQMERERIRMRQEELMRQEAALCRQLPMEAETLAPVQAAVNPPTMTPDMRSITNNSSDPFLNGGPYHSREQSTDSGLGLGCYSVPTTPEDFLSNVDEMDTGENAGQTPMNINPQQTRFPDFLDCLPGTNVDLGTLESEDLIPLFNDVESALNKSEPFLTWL
UniProt P46937: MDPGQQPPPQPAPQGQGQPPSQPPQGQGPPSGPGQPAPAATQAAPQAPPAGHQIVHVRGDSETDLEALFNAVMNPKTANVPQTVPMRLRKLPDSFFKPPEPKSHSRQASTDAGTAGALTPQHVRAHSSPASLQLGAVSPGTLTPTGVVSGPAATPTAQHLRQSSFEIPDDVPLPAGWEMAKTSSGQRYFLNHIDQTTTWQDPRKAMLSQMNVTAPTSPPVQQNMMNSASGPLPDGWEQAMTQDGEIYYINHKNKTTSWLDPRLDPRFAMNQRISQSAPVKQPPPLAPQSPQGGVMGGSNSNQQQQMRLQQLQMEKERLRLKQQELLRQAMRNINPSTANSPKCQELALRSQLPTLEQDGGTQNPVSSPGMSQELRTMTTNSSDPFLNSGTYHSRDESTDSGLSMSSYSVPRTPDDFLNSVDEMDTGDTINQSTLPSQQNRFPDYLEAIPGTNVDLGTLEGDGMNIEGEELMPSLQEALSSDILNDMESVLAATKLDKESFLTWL

Tests used:
[1] = molecular target: TEAD4 (TEA domain transcription factor 4) (human (endogenous in TELC-D5 cells and TSCs derived from H9 ESCs and UH10 iPSCs)) (UniProt Q15561); experiment: co-IP; endogenous proteins in lysates of TELC-D5 cells (day 5 of TELC induction from 4CL H9 ESCs and UH10 iPSCs); TNE lysis buffer (50 mM Tris-HCl pH 7.5, 250 mM NaCl, 0.5% NP-40, 1 mM EDTA) diluted with the same volume of TNEG buffer; primary antibody overnight at 4 °C, protein A/G magnetic beads 3 h at 4 °C; Western blotting
[2] = molecular target: T1, VGLL1 (vestigial-like family member 1) (human (endogenous in TELC-D5 cells and TSCs derived from H9 ESCs and UH10 iPSCs)) (UniProt Q99990); experiment: as above
T1 sequence: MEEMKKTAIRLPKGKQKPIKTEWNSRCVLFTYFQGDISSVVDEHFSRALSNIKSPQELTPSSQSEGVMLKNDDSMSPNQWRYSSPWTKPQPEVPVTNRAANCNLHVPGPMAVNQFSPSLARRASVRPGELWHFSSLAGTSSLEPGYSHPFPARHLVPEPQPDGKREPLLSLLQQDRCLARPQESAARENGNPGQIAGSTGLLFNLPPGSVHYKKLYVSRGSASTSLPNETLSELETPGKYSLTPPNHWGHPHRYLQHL

[3] = molecular target: TEAD4 (TEA domain transcription factor 4) (human (endogenous in TELC-D5 cells and TSCs derived from H9 ESCs and UH10 iPSCs)) (UniProt Q15561); experiment: co-IP; endogenous proteins in lysates of TSCs derived from H9 ESCs and UH10 iPSCs; TNE lysis buffer (50 mM Tris-HCl pH 7.5, 250 mM NaCl, 0.5% NP-40, 1 mM EDTA) diluted with the same volume of TNEG buffer; primary antibody overnight at 4 °C, protein A/G magnetic beads 3 h at 4 °C; Western blotting
[4] = molecular target: TEAD4 (TEA domain transcription factor 4) (human (endogenous in TELC-D5 cells and TSCs derived from H9 ESCs and UH10 iPSCs)) (UniProt Q15561); experiment: co-IP; endogenous proteins in lysates of TELC-D5 cells (day 5 of TELC induction from 4CL H9 ESCs and UH10 iPSCs); TNE lysis buffer (50 mM Tris-HCl pH 7.5, 250 mM NaCl, 0.5% NP-40, 1 mM EDTA) diluted with the same volume of TNEG buffer; primary antibody overnight at 4 °C, protein A/G magnetic beads 3 h at 4 °C; Western blotting; remark: listed apart in the source

In the case of GATA3 (from UniProt P23771 1-443), the binding [1] is reported as “binds” and the binding [2] is reported as “binds”.

TFAP2C (from UniProt Q92754 1-450) was tested, and the binding [1] was “binds” and the binding [2] was “binds”.

For WWTR1 (from UniProt Q9GZV5 1-400), the binding [3] was “binds”, the binding [1] was “binds” and the binding [2] was “no binding”.

With YAP (from UniProt P46937 1-504) the binding [2] was “no binding”.

B1: VGLL1 (vestigial-like family member 1) (protein, UniProt Q99990 1-258)
chain: T1 sequence
For B1, the binding [3] was “binds” and the binding [4] was “binds”.
